Experimental data taken from PubChem BioAssay AID485294 (National Center for Advancing Translational Sciences (NCATS), 2010).
Among all 370,000 compounds or so, about 150 (0.041%) were called active. Inconclusive results, whose numbers are uncertain, are shown with a selection of clear calls. The call rests on the fitted dose curve; in most records, active means well fitted inhibition curve with a large enough effect; inconclusive means small, poorly fitted or top-dose-only effect; inactive means flat fitted curve, though single readings scatter. Potencies of inconclusive entries are left out as doubtful fits.

target: Beta-lactamase (Escherichia coli (strain K12)) (UniProt P00811); assay: qHTS Inhibitors of AmpC Beta-Lactamase (assay with detergent); details: AmpC hydrolysis of nitrocefin, absorbance 480 nm, 0.01% Triton; activity change, negative = inhibition: at 114 µM (top of the series); further: nearly all actives have a fitted effect of over 25% in size;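 on activity change, negative = inhibition: 0% = no-compound wells and -100% = no-enzyme wells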
Procedure, shortened: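 AmpC (5.3 nM in the dispensed reagent) in 20 mM phosphate pH 7.0 with 0.01% (detergent screen) or 0.0001% Triton X-100 was preincubated with compounds for 15 min at room temperature. Nitrocefin was then added from an 800 uM solution, and hydrolysis was followed at 480 nm.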
Potency means the concentration at half of the fitted maximal effect; tags describe the fitted curve by direction and shape.

Sequence of UniProt P00811 (P00811 whole entry, looked up): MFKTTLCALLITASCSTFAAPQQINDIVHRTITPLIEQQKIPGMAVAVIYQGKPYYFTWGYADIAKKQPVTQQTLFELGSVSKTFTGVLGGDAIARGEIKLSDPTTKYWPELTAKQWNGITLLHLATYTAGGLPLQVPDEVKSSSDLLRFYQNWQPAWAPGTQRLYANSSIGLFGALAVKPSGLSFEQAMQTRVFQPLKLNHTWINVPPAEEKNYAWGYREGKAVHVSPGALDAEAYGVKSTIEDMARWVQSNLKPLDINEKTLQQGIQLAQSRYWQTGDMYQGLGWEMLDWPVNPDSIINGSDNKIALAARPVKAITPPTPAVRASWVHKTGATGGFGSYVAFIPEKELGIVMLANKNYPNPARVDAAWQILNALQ

Compound	Potency	activity change, negative = inhibition
CCN(CC)S(=O)(=O)c1cccc(NC(=O)COc2ccc(Cl)cc2Br)c1	inconclusive [inhibitor, full curve, poor fit]	–
NC(=O)c1ccc(NC(=O)CNCc2ccccc2Cl)cc1	inconclusive [inhibitor, single point]	–
CCOC(=O)c1ccccc1NC(=O)CSc1nnc(Cc2cccn2C)n1-c1ccc(F)cc1	inconclusive [inhibitor, partial curve, poor fit]	–
CCCCC(=O)Nc1ccc(C(=O)OC2CCCCC2)cc1	inconclusive [inhibitor, full curve, poor fit]	–
CCn1c(C)nc2cc(OC)ccc21	inconclusive [inhibitor, full curve, poor fit]	–
COc1ccc(OC)c(NC(=O)Cn2ccn(-c3ccc(OC)c(OC)c3)c(=O)c2=O)c1	–	inactive: 23.1%
COc1ccccc1C(=O)Nc1ccc2c(c1)OCO2	inconclusive [inhibitor, partial curve, poor fit]	–
Cc1ccc(NC(=O)c2ccc(NCCCN3CCC(C)CC3)c([N+](=O)[O-])c2)cc1F	–	inactive: 2.9%
Cc1ccc(S(=O)(=O)Nc2ccc3nc(C)sc3c2)cc1	–	inactive: -14.5%
O=C(CC1SC(=NCC2CCCO2)NC1=O)Nc1cc([N+](=O)[O-])ccc1Cl (stereo unspecified)	inconclusive [inhibitor, full curve, poor fit]	–
Cc1ccc(NC(=O)COC(=O)c2ccco2)cc1C	inconclusive [inhibitor, full curve, poor fit]	–
CC(=O)c1ccc(OCc2cc(C(=O)N3CC[C@@H]4CCCC[C@H]4C3)no2)cc1	–	inactive: 1.34%
COc1ccc2c(c1OC)C(=O)N1N=C(c3ccc(O)cc3)CC21 (stereo unspecified)	–	inactive: -8.51%
COc1cc(OC)c(OC)cc1/C=C/C(=O)c1ccc(NS(=O)(=O)c2ccc(C)cc2)cc1	–	inactive: -8.02%
COC(=O)[C@@]12CCCN1[C@H](c1ccc(-c3ccc(Cl)c(Cl)c3)cc1)[C@H]1C(=O)N(C)C(=O)[C@H]12	inconclusive [inhibitor, full curve]	–
O=C(Cn1cnc2ccccc2c1=O)N1CCN(Cc2ccc3c(c2)OCO3)CC1	inconclusive [inhibitor, single point]	–
Cc1ccc(N2C(=O)N(CC(=O)Nc3ccc(C)c(C)c3)C(=O)C2C)cc1 (stereo unspecified)	inconclusive [inhibitor, full curve, poor fit]	–
O=C(NC1CCc2ccccc21)C1CCN(S(=O)(=O)c2ccc(Cl)cc2)CC1 (stereo unspecified)	inconclusive [inhibitor, full curve, poor fit]	–
COc1ccc2c(c1OC)C(=O)N1c3ccccc3SC21 (stereo unspecified)	inconclusive [inhibitor, full curve, poor fit]	–
COc1ccc(CN2C(=O)C(C)N(C(=O)c3c(F)cccc3F)c3ccccc32)cc1 (stereo unspecified)	–	inactive: 2.19%
Cc1c(Cc2ccccc2)c(=O)oc2c(C)c(OC(C)C(=O)N[C@@H](Cc3ccccc3)C(=O)O)ccc12 (stereo partly specified)	inconclusive [inhibitor, partial curve]	–

Compound	Potency	activity change, negative = inhibition
Cc1csc(NC(=O)c2ccc(N3CCCC3=O)cc2)n1	inconclusive [inhibitor, partial curve, poor fit]	–
COc1ccc(NC(=O)[C@H](Cc2c[nH]c3ccccc23)NC(=O)[C@@H]2Cc3ccccc3CN2)cc1	–	inactive: -9.34%
CC1CCCN(C(=O)CN2C(=O)c3ccccc3C2=O)C1 (stereo unspecified)	inconclusive [inhibitor, single point]	–
CCc1oc(C(=O)O)cc1CN(CC)CC	inconclusive [inhibitor, full curve]	–
O=C(NCCc1csc(-c2cccnc2)n1)c1ccccc1	inconclusive [inhibitor, full curve]	–
O=C(N/C(=C/c1cccnc1)C(=O)N1CCCCCC1)c1ccccc1	inconclusive [inhibitor, full curve]	–
CCOC(=O)c1cnc(N2CCN(c3cccc(C)c3C)CC2)c2ccccc12	–	inactive: 13.4%
O=C(NNc1cc(Cl)ccc1Cl)c1cccnc1Cl	inconclusive [inhibitor, full curve, poor fit]	–
Cc1cccc(NC(=O)CSc2nnc(CSc3nc(C)cc(C)n3)n2Cc2ccco2)c1	inconclusive [inhibitor, full curve, poor fit]	–
CC(C)COCC(CN(Cc1ccccc1)c1ccccc1)N1CCCC1 (stereo unspecified)	inconclusive [inhibitor, full curve, poor fit]	–
NC(=O)CC(NC(=O)Cc1cccc2ccccc12)c1ccc(N2CCCCCCC2)c([N+](=O)[O-])c1 (stereo unspecified)	inconclusive [inhibitor, full curve]	–
CC1=C(Sc2nc3ccccc3[nH]2)C(=O)NC(C)(C)C1	inconclusive [inhibitor, full curve, poor fit]	–
Cc1ccccc1OC(C)C(=O)NC1CCCC1 (stereo unspecified)	inconclusive [inhibitor, partial curve]	–
O=C(Oc1ccc(Cl)c2cccnc12)C12CC3CC(CC(C3)C1)C2	–	inactive: -6.46%
Cc1nc2ccc(Cl)cc2c(-c2ccccc2)c1C(=O)N(C)C	–	inactive: 0.673%
CCN(C(=O)CSc1nc2ccccc2c(=O)n1Cc1ccc(C)cc1)C1CCS(=O)(=O)C1 (stereo unspecified)	inconclusive [inhibitor, full curve, poor fit]	–
Cc1ccc(/C=c2\sc3nc(-c4ccccc4Br)nn3c2=O)o1	inconclusive [inhibitor, single point]	–
CC(C)(C)C(=O)NC1CC2CCCC(C1)N2C(=O)Nc1ccccc1F (stereo unspecified)	inconclusive [inhibitor, full curve, poor fit]	–
Cc1nn(C)cc1S(=O)(=O)N1CCN(Cc2ccccc2Cl)CC1	inconclusive [inhibitor, full curve, poor fit]	–
Cc1ccc(C2CN=NC23CCc2ccccc2C3=O)cc1 (stereo unspecified)	inconclusive [inhibitor, full curve, poor fit]	–
